The record followed here is patent publication US20240358672A1, “APPLICATION OF GENISTEIN AND ITS PHOSPHATE ESTER DERIVATIVE AND PHARMACEUTICAL COMPOSITION COMPRISING THE SAME” (National Taiwan University, priority 2023, published 2024).

Structures are written as SMILES.

One data set concerns hiPSC-ECs. The experiment in a line: Monocyte (U937) adhesion assay on hiPSC-ECs. Particulars: 10 μM genistein with 5 μM Δ^9-THC, 48 hours.
The test system of data set [1] is human embryonic stem cell-derived cardiomyocytes (H7 hESC-CMs). Put plainly: CellTiter-Glo cell viability, cardiomyocytes. As to conditions: increasing concentrations of Δ^9-THC, 48 hours. Background: ATP-based viability assays read luminescence as a measure of living cells.
For data set [2], the system named is normal human cardiac fibroblasts-ventricular (NHCF-V) cells. Put plainly: CellTiter-Glo cell viability, cardiac fibroblasts. As to conditions: increasing concentrations of Δ^9-THC, 48 hours.

Turning to `O=c1c(-c2ccc(O)cc2)coc2cc(O)cc(O)c12` [genistein], in the data set with hiPSC-ECs, the “Δ^9-THC-induced monocyte adhesion to hiPSC-ECs” value is “reversed”.
`CCCCCc1cc(O)c2c(c1)OC(C)(C)[C@@H]1CCC(C)=C[C@@H]21` [Δ^9-THC, Δ^9-tetrahydrocannabinol]: the “cytotoxicity (cell viability)” value in data set [1] and in data set [2] was “without any adverse effect” each time.
